From publication PMC9452587
Results are given in words; binding and its absence hold for the method and conditions named. In cells and extracts the contact can be indirect. Some entries that bind do so weakly or less than the wild type.

The chains behind the UniProt entries cited, without tags or fusion partners. Where a name states a change or a piece, a line headed by the entry shows the natural chain unless it says otherwise.
UniProt Q60680: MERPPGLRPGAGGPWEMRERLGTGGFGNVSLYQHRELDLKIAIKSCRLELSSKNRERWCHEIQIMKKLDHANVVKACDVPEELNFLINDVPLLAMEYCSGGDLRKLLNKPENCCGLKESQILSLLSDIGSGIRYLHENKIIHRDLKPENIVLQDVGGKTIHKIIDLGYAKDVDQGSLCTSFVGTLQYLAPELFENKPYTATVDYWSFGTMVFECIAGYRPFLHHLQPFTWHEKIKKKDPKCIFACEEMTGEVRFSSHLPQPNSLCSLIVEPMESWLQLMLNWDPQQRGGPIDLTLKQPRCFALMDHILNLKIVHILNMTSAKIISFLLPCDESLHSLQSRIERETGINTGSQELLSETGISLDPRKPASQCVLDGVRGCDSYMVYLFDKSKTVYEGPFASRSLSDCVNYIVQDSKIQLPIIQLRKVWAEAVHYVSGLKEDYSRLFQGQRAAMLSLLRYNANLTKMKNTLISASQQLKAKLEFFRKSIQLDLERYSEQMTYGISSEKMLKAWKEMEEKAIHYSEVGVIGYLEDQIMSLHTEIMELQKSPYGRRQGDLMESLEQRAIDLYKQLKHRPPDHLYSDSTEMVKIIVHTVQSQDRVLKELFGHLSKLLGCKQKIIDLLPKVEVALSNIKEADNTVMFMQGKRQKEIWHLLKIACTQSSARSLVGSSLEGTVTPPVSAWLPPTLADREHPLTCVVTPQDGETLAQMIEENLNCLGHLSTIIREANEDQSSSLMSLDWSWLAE

Target: T1, TNFR1 (mouse (endogenous in MEFs)) (UniProt P25118)
T1 sequence: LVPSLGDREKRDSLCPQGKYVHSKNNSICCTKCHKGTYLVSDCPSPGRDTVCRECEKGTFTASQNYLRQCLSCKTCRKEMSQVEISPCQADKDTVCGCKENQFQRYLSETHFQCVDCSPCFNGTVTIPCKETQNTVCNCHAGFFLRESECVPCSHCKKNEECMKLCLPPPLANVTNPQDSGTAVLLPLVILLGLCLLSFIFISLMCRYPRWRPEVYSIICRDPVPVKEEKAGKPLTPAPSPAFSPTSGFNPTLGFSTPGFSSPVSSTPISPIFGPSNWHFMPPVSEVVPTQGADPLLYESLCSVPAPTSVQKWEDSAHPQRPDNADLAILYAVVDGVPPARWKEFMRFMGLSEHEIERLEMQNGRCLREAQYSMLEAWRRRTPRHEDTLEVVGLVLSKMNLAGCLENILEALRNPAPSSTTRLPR
Experiment: co-IP; MEFs (WT, PP6 knockout and reconstituted) treated with TNFα 50 ng/ml for indicated times, NP-40 lysis, anti-TNFR1 antibody overnight at 4 °C, Protein G agarose, western blot

binding: binds
Substance: IKKα/β (from UniProt Q60680 1-745; O88351 1-757) (complex)
